Where two headings read alike, the source gives them in different places.
Legend:
Test in all cases: cells
[1] = tested on: MCF-7 luminal breast cancer cell line; conditions: Homo sapiens, MCF7, 120 h
[2] = tested on: MDA-MB-468 basal breast cancer cell line; conditions: Homo sapiens, MDA-MB-468, 120 h, read-out: Cell Line GI50 Range MDA-MB-468
[3] = tested on: HCC1954 basal breast cancer cell line; conditions: Homo sapiens, HCC1954, 120 h
[4] = tested on: SW620 colon cancer cell line; conditions: Homo sapiens, SW-620, 120 h, read-out: Cell Line GI50 Range SW-620
[5] = tested on: A549 lung cancer cell line; conditions: Homo sapiens, A549, 120 h, read-out: Cell Line GI50 Range A-549
[6] = read-out: Cell Line GI50 Range MCF-7
[7] = read-out: Cell Line GI50 Range HCC-1954
[8] = read-out: Cell Line GI50 Range MCF-7, MCF-7 luminal breast cancer cell line, SRB assay, 5 days
[9] = read-out: Cell Line GI50 Range HCC-1954, HCC1954 basal breast cancer cell line, SRB assay, 5 days

| Compound | GI50 [1, 6] | GI50 [2] | GI50 [3, 7] | GI50 [4] | GI50 [5] | GI50 [1, 8] | GI50 [3, 9] |
| --- | --- | --- | --- | --- | --- | --- | --- |
| CN1CCN(c2ccc(-c3n[nH]c4cc([C@@H]5C[C@@]56C(=O)N(C)c5ccccc56)ccc34)cn2)CC1 (relative stereo) [Example A93, (1R*,2S*)-1′-methyl-2-(3-(6-(4-methylpiperazin-1-yl)pyridin-3-yl)-1H-indazol-6-yl)spiro[cyclopropane-1,3′-indolin]-2′-one bis(2,2,2-trifluoroacetate)] | – | 1000 to 10000 nM | – | 1000 to 10000 nM | 1000 to 10000 nM | 1000 to 10000 nM | 1000 to 10000 nM |
| COc1ccc2c(c1)[C@]1(C[C@H]1c1ccc3c(-c4ccc(N5CCN(C(C)C)CC5)cc4)n[nH]c3c1)C(=O)N2 (relative stereo) [Example A96, (1R*,2S*)-2-(3-(4-(4-isopropylpiperazin-1-yl)phenyl)-1H-indazol-6-yl)-5′-methoxyspiro[cyclopropane-1,3′-indolin]-2′-one] | – | < 100 nM | – | < 100 nM | < 100 nM | < 100 nM | 1000 to 10000 nM |
| COc1ccc2c(c1)[C@]1(C[C@H]1c1ccc3c(-c4ccc(OCCN(C)C)cc4)n[nH]c3c1)C(=O)N2 (relative stereo) [Example A103, (1R*,2S*)-2-(3-(4-(2-(dimethylamino)ethoxy)phenyl)-1H-indazol-6-yl)-5′-methoxyspiro[cyclopropane-1,3′-indolin]-2′-one 2,2,2-trifluoroacetate] | – | < 100 nM | – | < 100 nM | < 100 nM | < 100 nM | 1000 to 10000 nM |
| COc1ccc2c(c1)[C@]1(C[C@H]1c1ccc3c(-c4ccc(N5CCC(N(C)C)CC5)cc4)n[nH]c3c1)C(=O)N2 (relative stereo) [Example A119, (1R*,2S*)-2-(3-(4-(4-(dimethylamino)piperidin-1-yl)phenyl)-1H-indazol-6-yl)-5′-methoxyspiro[cyclopropane-1,3′-indolin]-2′-one 2,2,2-trifluoroacetate] | – | < 100 nM | – | < 100 nM | < 100 nM | < 100 nM | 100 to 1000 nM |

Continued, values first:

| GI50 [1, 6] | GI50 [2] | GI50 [3, 7] | GI50 [4] | GI50 [5] | GI50 [1, 8] | GI50 [3, 9] | Compound |
| --- | --- | --- | --- | --- | --- | --- | --- |
| < 100 nM | 100 to 1000 nM | > 10000 nM | 1000 to 10000 nM | 1000 to 10000 nM | – | – | COc1ccc2c(c1)[C@]1(C[C@H]1c1ccc3c(-c4ccc(N5CCNCC5)nc4)n[nH]c3c1)C(=O)N2 (relative stereo) [Example A21, 4-(5-(6-((1R*,2S*)-5′-Methoxy-2′-oxospiro[cyclopropane-1,3′-indoline]-2-yl)-1H-indazol-3-yl)pyridinium-2-yl)piperazine bis(2,2,2-trifluoroacetate)] |
| 1000 to 10000 nM | 1000 to 10000 nM | > 10000 nM | 1000 to 10000 nM | 1000 to 10000 nM | – | – | COc1ccc2c(c1)[C@]1(C[C@H]1c1ccc3c(-c4cccc(CO)c4)n[nH]c3c1)C(=O)N2 (relative stereo) [Example A43, (1R*,2S*)-2-(3-(3-(hydroxymethyl)phenyl)-1H-indazol-6-yl)-5′-methoxy spiro[cyclopropane-1,3′-indolin]-2′-one 2,2,2-trifluoroacetate] |
| 1000 to 10000 nM | 1000 to 10000 nM | > 10000 nM | > 10000 nM | 1000 to 10000 nM | – | – | COc1ccc2c(c1)[C@]1(C[C@H]1c1ccc3c(-c4cccc(CCO)c4)n[nH]c3c1)C(=O)N2 (relative stereo) [Example A46, (1R*,2S*)-2-(3-(3-(2-hydroxyethyl)phenyl)-1H-indazol-6-yl)-5′-methoxy spiro[cyclopropane-1,3′-indolin]-2′-one] |
| – | < 100 nM | – | 100 to 1000 nM | < 100 nM | < 100 nM | 1000 to 10000 nM | CN1C(=O)[C@@]2(C[C@H]2c2ccc3c(/C=C/c4ccc(CN5CCOCC5)cc4)n[nH]c3c2)c2ccccc21 (relative stereo) [Example A87, (1R*,2S*)-(E)-1′-methyl-2-(3-(4-(morpholinomethyl)styryl)-1H-indazol-6-yl)spiro[cyclopropane-1,3′-indolin]-2′-one 2,2,2-trifluoroacetate] |
